The list shows a part of the results.
Experiments:
Experiment in all cases: glycan array binding signal (z-score within array); higher = stronger binding
Settings in all cases: glycan notation: IUPAC condensed, linker removed
Gal(a1-3)Gal = target: Gal(a1-3)Gal
Procedure, shortened: (§1)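 Glycan array data came from 3228 arrays in the Consortium for Functional Glycomics database, and only arrays with an available protein sequence were kept. Glycan names were put into IUPAC-condensed notation, and columns mapping to the same glycan were averaged. The binding signal is a within-array Z-score, averaged across arrays of one protein sequence run at different concentrations or buffers and across linkers. A negative Z-score can be read as non-binding.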

Gal(a1-3)Gal(b1-3)GlcNAc = target: Gal(a1-3)Gal(b1-3)GlcNAc
Procedure, shortened: as §1

[1] = target: Gal(a1-3)Gal(b1-3)GlcNAc(b1-2)Man
Procedure, shortened: as §1

[2] = target: Gal(a1-3)Gal(b1-3)GlcNAc(b1-2)Man(a1-3)[Gal(a1-3)Gal(b1-3)GlcNAc(b1-2)Man(a1-6)]Man(b1-4)GlcNAc(b1-4)GlcNAc
Procedure, shortened: as §1

[3] = target: Gal(a1-3)Gal(b1-3)GlcNAc(b1-3)GalNAc
Procedure, shortened: as §1

[4] = target: Gal(a1-3)Gal(b1-3)GlcNAc(b1-6)GalNAc
Procedure, shortened: as §1

[5] = target: Gal(a1-3)Gal(b1-3)[Fuc(a1-4)]GlcNAc(b1-2)Man(a1-3)[Gal(a1-3)Gal(b1-3)[Fuc(a1-4)]GlcNAc(b1-2)Man(a1-6)]Man(b1-4)GlcNAc(b1-4)GlcNAc
Procedure, shortened: as §1

Gal(a1-3)Gal(b1-4)Glc = target: Gal(a1-3)Gal(b1-4)Glc
Procedure, shortened: as §1

Gal(a1-3)Gal(b1-4)GlcNAc = target: Gal(a1-3)Gal(b1-4)GlcNAc
Procedure, shortened: as §1

[6] = target: Gal(a1-3)Gal(b1-4)GlcNAc(b1-2)Man
Procedure, shortened: as §1

[7] = target: Gal(a1-3)Gal(b1-4)GlcNAc(b1-2)Man(a1-3)[Gal(a1-3)Gal(b1-4)GlcNAc(b1-2)Man(a1-6)]Man(b1-4)GlcNAc(b1-4)GlcNAc
Procedure, shortened: as §1

[8] = target: Gal(a1-3)Gal(b1-4)GlcNAc(b1-3)GalNAc
Procedure, shortened: as §1

[9] = target: Gal(a1-3)Gal(b1-4)GlcNAc(b1-6)GalNAc
Procedure, shortened: as §1

[10] = target: Gal(a1-3)Gal(b1-4)[Fuc(a1-3)]GlcNAc
Procedure, shortened: as §1

[11] = target: Gal(a1-3)Gal(b1-4)[Fuc(a1-3)]GlcNAc(b1-2)Man(a1-3)[Gal(a1-3)Gal(b1-4)[Fuc(a1-3)]GlcNAc(b1-2)Man(a1-6)]Man(b1-4)GlcNAc(b1-4)GlcNAc
Procedure, shortened: as §1

Gal(a1-3)GalNAc = target: Gal(a1-3)GalNAc
Procedure, shortened: as §1

[12] = target: Gal(a1-3)[Gal(a1-4)]Gal(b1-4)GlcNAc
Procedure, shortened: as §1

[13] = target: Gal(a1-4)Gal(b1-3)GlcNAc(b1-2)Man(a1-3)[Gal(a1-4)Gal(b1-3)GlcNAc(b1-2)Man(a1-6)]Man(b1-4)GlcNAc(b1-4)GlcNAc
Procedure, shortened: as §1

Gal(a1-4)Gal(b1-4)Glc = target: Gal(a1-4)Gal(b1-4)Glc
Procedure, shortened: as §1

Gal(a1-4)Gal(b1-4)GlcNAc = target: Gal(a1-4)Gal(b1-4)GlcNAc
Procedure, shortened: as §1

[14] = target: Gal(a1-4)Gal(b1-4)GlcNAc(b1-2)Man(a1-3)[Gal(a1-4)Gal(b1-4)GlcNAc(b1-2)Man(a1-6)]Man(b1-4)GlcNAc(b1-4)GlcNAc
Procedure, shortened: as §1

[15] = target: Gal(a1-4)Gal(b1-4)GlcNAc(b1-3)Gal(b1-4)Glc
Procedure, shortened: as §1

Gal(a1-4)GlcNAc = target: Gal(a1-4)GlcNAc
Procedure, shortened: as §1

Gal(a1-6)Glc = target: Gal(a1-6)Glc
Procedure, shortened: as §1

Gal(b1-2)Gal = target: Gal(b1-2)Gal
Procedure, shortened: as §1

Gal(b1-3)Gal = target: Gal(b1-3)Gal
Procedure, shortened: as §1

Gal(b1-3)Gal(b1-4)GlcNAc = target: Gal(b1-3)Gal(b1-4)GlcNAc
Procedure, shortened: as §1

Gal(b1-3)GalNAc = target: Gal(b1-3)GalNAc
Procedure, shortened: as §1

[16] = target: Gal(b1-3)GalNAc(a1-3)[Fuc(a1-2)]Gal(b1-4)Glc
Procedure, shortened: as §1

[17] = target: Gal(b1-3)GalNAc(a1-3)[Fuc(a1-2)]Gal(b1-4)GlcNAc
Procedure, shortened: as §1

Gal(b1-3)GalNAc(b1-3)Gal = target: Gal(b1-3)GalNAc(b1-3)Gal
Procedure, shortened: as §1

[18] = target: Gal(b1-3)GalNAc(b1-3)Gal(a1-4)Gal(b1-4)Glc
Procedure, shortened: as §1

[19] = target: Gal(b1-3)GalNAc(b1-4)Gal(b1-4)Glc
Procedure, shortened: as §1

[20] = target: Gal(b1-3)GalNAc(b1-4)[Neu5Ac(a2-3)]Gal(b1-4)Glc
Procedure, shortened: as §1

Gal(b1-3)GlcNAc = target: Gal(b1-3)GlcNAc
Procedure, shortened: as §1

[21] = target: Gal(b1-3)GlcNAc(a1-3)Gal(b1-4)GlcNAc
Procedure, shortened: as §1

[22] = target: Gal(b1-3)GlcNAc(a1-6)Gal(b1-4)GlcNAc
Procedure, shortened: as §1

Gal(b1-3)GlcNAc(b1-2)Man = target: Gal(b1-3)GlcNAc(b1-2)Man
Procedure, shortened: as §1

B1: Siglec-9 (Homo sapiens), Q9Y336 (protein)
chain: MLLLLLPLLWGRERAEGQTSKLLTMQSSVTVQEGLCVHVPCSFSYPSHGWIYPGPVVHGYWFREGANTDQDAPVATNNPARAVWEETRDRFHLLGDPHTKNCTLSIRDARRSDAGRYFFRMEKGSIKWNYKHHRLSVNVTALTHRPNILIPGTLESGCPQNLTCSVPWACEQGTPPMISWIGTSVSPLDPSTTRSSVLTLIPQPQDHGTSLTCQVTFPGASVTTNKTVHLNVSYPPQNLTMTVFQGDGTVSTVLGNGSSLSLPEGQSLRLVCAVDAVDSNPPARLSLSWRGLTLCPSQPSNPGVLELPWVHLRDAAEFTCRAQNPLGSQQVYLNVSLQSKATSGVTQGVVGGAGATALVFLSFCVIFVVVRSCRKKSARPAAGVGDTGIEDANAVRGSASQGPLTEPWAEDSPPDQPPPASARSSVGEGELQYASLSFQMVKPWDSRGQEATDTEYSEIKIHR
glycan array binding signal (z-score) (Gal(a1-3)Gal): -0.16 | glycan array binding signal (z-score) (Gal(a1-3)Gal(b1-3)GlcNAc): 0.425 | glycan array binding signal (z-score) [1]: 0.393 | glycan array binding signal (z-score) [2]: -0.086 | glycan array binding signal (z-score) [3]: -0.092 | glycan array binding signal (z-score) [4]: 0.105 | glycan array binding signal (z-score) [5]: 0.309 | glycan array binding signal (z-score) (Gal(a1-3)Gal(b1-4)Glc): -0.257 | glycan array binding signal (z-score) (Gal(a1-3)Gal(b1-4)GlcNAc): -0.323 | glycan array binding signal (z-score) [6]: -0.23 | glycan array binding signal (z-score) [7]: -0.047 | glycan array binding signal (z-score) [8]: -0.083 | glycan array binding signal (z-score) [9]: 0.048 | glycan array binding signal (z-score) [10]: -0.249 | glycan array binding signal (z-score) [11]: 0.041 | glycan array binding signal (z-score) (Gal(a1-3)GalNAc): -0.192 | glycan array binding signal (z-score) [12]: -0.042 | glycan array binding signal (z-score) [13]: -0.185 | glycan array binding signal (z-score) (Gal(a1-4)Gal(b1-4)Glc): -0.183 | glycan array binding signal (z-score) (Gal(a1-4)Gal(b1-4)GlcNAc): -0.198 | glycan array binding signal (z-score) [14]: 0.13 | glycan array binding signal (z-score) [15]: -0.242 | glycan array binding signal (z-score) (Gal(a1-4)GlcNAc): -0.162 | glycan array binding signal (z-score) (Gal(a1-6)Glc): -0.251 | glycan array binding signal (z-score) (Gal(b1-2)Gal): -0.096 | glycan array binding signal (z-score) (Gal(b1-3)Gal): -0.096 | glycan array binding signal (z-score) (Gal(b1-3)Gal(b1-4)GlcNAc): -0.25 | glycan array binding signal (z-score) (Gal(b1-3)GalNAc): -0.217 | glycan array binding signal (z-score) [16]: -0.434 | glycan array binding signal (z-score) [17]: -0.07 | glycan array binding signal (z-score) (Gal(b1-3)GalNAc(b1-3)Gal): -0.078 | glycan array binding signal (z-score) [18]: -0.101 | glycan array binding signal (z-score) [19]: -0.369 | glycan array binding signal (z-score) [20]: -0.094 | glycan array binding signal (z-score) (Gal(b1-3)GlcNAc): -0.23 | glycan array binding signal (z-score) [21]: 0.042 | glycan array binding signal (z-score) [22]: -0.175 | glycan array binding signal (z-score) (Gal(b1-3)GlcNAc(b1-2)Man): -0.087

Source: the supplement of paper PMC8728848
